In the supplement of paper PMC12340641:
Whole data set: some 1,000 compounds, median “relative growth in counter assay (no AraC = 100%, AraC + DMSO = 0%)” near -1.1, cut for the highest 2% near 20. The list shows a part of the results.

test system: HEK293FT dCK*-only; assay: relative growth in counter assay (no AraC = 100%, AraC + DMSO = 0%); higher = more growth rescue independent of IKZF1; settings: compound concentration: 5 uM; AraC concentration: 0.3 uM; overnight pretreatment + 4 days AraC
Procedure: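 Growth recovery screen of the molecular-glue-like (Specs) library. HEK293FT cells expressing a dCK*-IKZF1 fusion (primary) or dCK* alone (counter) were pretreated overnight with compound at 5 uM, then given 0.3 uM AraC for 4 days. Hoechst nuclei were counted by imaging. Primary: normalised to pomalidomide (100%) and DMSO (0%), mean of 2 replicates. Counter: normalised to no-AraC (100%) and AraC+DMSO (0%), single replicate.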

SMILES	relative growth in counter assay
O=S(=O)(Cc1ccccc1)Nc1ccc(S(=O)(=O)Nc2ncccn2)cc1	5.8%
CC(C)N(C(=O)CN1CCC(Cc2cccc(Nc3nccs3)n2)CC1)C1CCCCC1	-2.01%
Cc1cc(C)nc(NS(=O)(=O)c2ccc(NC(=O)c3ccccc3OC(C)C)cc2)n1	-1.73%
COC1CCCC(C(=O)N2CCOC(c3cccc(Nc4ncc(C)s4)n3)C2)C1 (stereo not given)	-9.41%
O=C(Nc1ccc(S(=O)(=O)Nc2ncccn2)cc1)c1ccc(N2C(=O)c3ccccc3C2=O)cc1	0.46%
Cc1nc(Nc2cccc(C3CCCN3C(=O)c3c(C)oc4c3CCCC4)n2)sc1C (stereo not given)	-6.74%
Cc1cc(C)nc(NS(=O)(=O)c2ccc(NC(=O)C(C)Oc3c(C)cccc3C)cc2)n1 (stereo not given)	2.87%
Cc1cnc(Nc2cccc(C3CN(C(=O)CN4CCc5ccccc5C4)CCO3)n2)s1 (stereo not given)	2.21%
Cc1cnc(Nc2cccc(C3(C(=O)NCCO)CCN(C(=O)C4CCCCC4)CC3)n2)s1	-16.1%
CCOc1cc(C(=O)Nc2ccc(S(=O)(=O)Nc3ncccn3)cc2)cc(OCC)c1OCC	-4.37%
COc1ccc(Cl)c2c1[nH]c1nc(SCC(=O)Nc3ccc(F)cc3)nnc12	-5.08%
Cc1cc(C)cc(OCC(=O)Nc2ccc(S(=O)(=O)Nc3nc(C)cc(C)n3)cc2)c1	-0.94%
Cc1ccc2[nH]c3nc(SCC(=O)Nc4ccc(Cl)cc4)nnc3c2c1	-6.1%
Cc1cnc(Nc2cccc(C3CN(C(=O)C4CCCC(C)C4)CCO3)n2)s1 (stereo not given)	-12.6%
CCC(CC)C(=O)N1CCOC(c2cccc(Nc3ncc(C)s3)n2)C1 (stereo not given)	-22%
Cc1cnc(Nc2cccc(CC3CCN(C(=O)c4cccc(Cl)c4F)CC3)n2)s1	-16.3%
COc1cc(NS(=O)(=O)c2ccc(NC(=O)c3ccccc3C)cc2)nc(OC)n1	2.06%
CC(=O)Nc1ccc(S(=O)(=O)Nc2nccc(/C=C/c3ccc(Cl)cc3)n2)cc1	4.3%
Cc1cnc(Nc2cccc(C3CN(C(=O)CN4CCN(C)CC4)CCO3)n2)s1 (stereo not given)	0.33%
O=C(Nc1ccc(S(=O)(=O)Nc2ccccn2)cc1)c1ccccc1F	0.76%

SMILES	relative growth in counter assay
Cc1csc(Nc2cccc(C3CCN(C(=O)CN(C)C)CC3)n2)n1	17.4%
Cc1cccc2c1[nH]c1nc(SCC(=O)Nc3ccc(Cl)cc3)nnc12	-3.09%
CCCc1cnc(Nc2cccc(C3CCN(C(=O)CN)CC3)n2)s1	-27%
COc1nccnc1NS(=O)(=O)c1ccc(NC(=S)NC(=O)c2ccc(F)c(F)c2)cc1	-1.83%
Cc1cnc(Nc2cccc(C3CCN(CC(=O)N(C)C4CCCCC4)CC3)n2)s1	-15.6%
Cc1cc(C)nc(NS(=O)(=O)c2ccc(NC(=O)CCCN3C(=O)c4ccccc4C3=O)cc2)n1	10.7%
CS(=O)(=O)Nc1ccc(S(=O)(=O)Nc2ncccn2)cc1	3.46%
COc1cc(NS(=O)(=O)c2ccc(Nc3nc(-c4ccc(F)cc4F)cs3)cc2)nc(OC)n1	4.68%
COc1cc(NS(=O)(=O)c2ccc(Nc3nc(-c4c(C)nc5cc(C)ccn45)cs3)cc2)nc(OC)n1	-10.6%
O=C(C1CCCCC1)N1CCOC(c2cccc(Nc3ncc(Cc4ccccc4)s3)n2)C1 (stereo not given)	14.4%
Cc1cc(C)c2[nH]c3nc(SCC(=O)Nc4ccc(C)c(Cl)c4)nnc3c2c1	-7.39%
Cc1ccccc1N1C(=O)c2ccc(Oc3cccc(N)c3)cc2C1=O	-8.47%
Cc1ccc(OCC(=O)Nc2ccc(S(=O)(=O)Nc3nc(C)cc(C)n3)cc2)cc1	3.18%
COc1cc(NS(=O)(=O)c2ccc(NC(=O)c3ccccc3C(=O)O)cc2)nc(OC)n1	1.08%
CCCCCOC(=O)c1ccc(N2C(=O)c3ccc(Oc4ccc(N)cc4)cc3C2=O)cc1	-8.41%
CC(=O)N1CCC(c2csc(Nc3ccc(F)cn3)n2)CC1	4.68%
Cc1cc(C)nc(NS(=O)(=O)c2ccc(-n3cccc3)cc2)n1	-3.86%
Cc1cnc(Nc2cccc(C3CN(C(=O)Cn4c(C(C)C)nc5ccccc54)CCO3)n2)s1 (stereo not given)	-14.1%
Cc1cccc(N2CC(C(=O)Nc3ccc(S(=O)(=O)Nc4ncccn4)cc3)CC2=O)c1C (stereo not given)	2.21%
Cc1cc(NS(=O)(=O)c2ccc(NC(=O)C(C)Oc3ccc(F)cc3)cc2)nc(C)n1 (stereo not given)	0.64%

SMILES	relative growth in counter assay
NC1(C(=O)N2CCC(c3cccc(Nc4ncc(CC(F)(F)F)s4)n3)CC2)CC1	-24.5%
COc1ccc(CCC(=O)Nc2ccc(S(=O)(=O)Nc3nccc(C)n3)cc2)cc1	-2.68%
CCc1ccc(C(=O)Nc2ccc(S(=O)(=O)Nc3nc(C)cc(C)n3)cc2)o1	-1.63%
O=C(O)CCOCCOCCOCCOCCNc1cccc2c1C(=O)N(C1CCC(=O)NC1=O)C2=O (stereo not given)	1.09%
CC(C)(C)C(=O)N1CCOC(c2cccc(Nc3ncc(Cc4ccccc4F)s3)n2)C1 (stereo not given)	-6.81%
Cc1cc(C)nc(NS(=O)(=O)c2ccc(NC(=O)c3ccccc3I)cc2)n1	1.67%
O=C(C1COCCN1)N1CCC(c2cccc(Nc3ncc(-c4ccccc4)s3)n2)CC1 (stereo not given)	-3.94%
Cc1cnc(Nc2cccc(C3(CO)CCN(C(=O)C4CCCCC4)CC3)n2)s1	-10.4%
Cc1cnc(Nc2cccc(C3CN(C(=O)C(C)(C)C)CCO3)n2)s1 (stereo not given)	-10.3%
Cc1cc(C)nc(NS(=O)(=O)c2ccc(NC(=O)C3CC(=O)N(c4ccccc4)C3)cc2)n1 (stereo not given)	4.27%
COc1ccc(CN(C(=O)CSc2nnc3c(n2)[nH]c2ccc(OC)cc23)c2ccc(F)cc2)cc1	17.3%
Cc1cc(C)c(C(=O)Nc2ccc(S(=O)(=O)Nc3ncccn3)cc2)c(C)c1	-5.77%
Cc1cc(C)nc(NS(=O)(=O)c2ccc(NC(=O)CSc3nc4c(cc3C#N)CCCC4)cc2)n1	-0.73%
CC(=O)N1CCC(CCc2ccnc(Nc3nccs3)c2)CC1	9.32%
Cc1cccc(C(=O)Nc2ccc(S(=O)(=O)Nc3nc(C)cc(C)n3)cc2)c1	-3.41%
Cc1cc(C)nc(NS(=O)(=O)c2ccc(NS(C)(=O)=O)cc2)n1	-3.14%
Cc1cnc(Nc2cccc(C3CN(C(=O)Cn4nnc5ccccc54)CCO3)n2)s1 (stereo not given)	-3.81%
Cc1cc(C)nc(NS(=O)(=O)c2ccc(NC(=O)NC3CCCCC3)cc2)n1	-11.4%
Cc1ccc(Oc2ccc3c(c2)C(=O)N(c2ccc(C(N)=O)cc2)C3=O)cc1C	3.9%
Cc1cnc(Nc2cccc(C3CCN(C(=O)c4cccnc4)CC3)n2)s1	-24.4%
